Drawing on publication PMC12820563, this text covers binding signal (RPM ratio (pull-down/input)) for 31 sequences.

Some of the results follow. The list includes weakly bound sequences.

The target in the test is T1, MBP-FoxP3dN (UniProt Q99JB6).
T1 sequence: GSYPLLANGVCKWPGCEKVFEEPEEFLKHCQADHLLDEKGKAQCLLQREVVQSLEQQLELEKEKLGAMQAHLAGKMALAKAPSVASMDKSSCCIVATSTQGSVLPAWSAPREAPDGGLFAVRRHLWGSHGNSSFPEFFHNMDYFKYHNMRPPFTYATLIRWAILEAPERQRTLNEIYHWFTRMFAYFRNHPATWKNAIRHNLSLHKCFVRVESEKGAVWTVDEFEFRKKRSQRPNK
Nature of the test: PD-seq (MBP pull-down with sequencing). As to conditions: 20 mM Tris-HCl pH 7.5, 100 mM NaCl, 1.5 mM MgCl2, 0.4 uM protein, 0.1 uM dsDNA library, 30 min, room temperature, amylose pull-down; high values mean tight binding; double strand, one strand shown.
Consider “GATGATTGTTCTCCCAGCTGATGAATTTAGCCGGTCGAGTAAACAAATTTTCCTAATCTTTCTGTTCAAGCGCCATCTAC”, for which the binding signal (RPM ratio (pull-down/input)) amounted to 0.47.
On to “GATGATTGTTCTCCCAGCTGATGAATTAAGCTTATCGAGTAAACAAATTTTCCTAATCTTTCTGTTCAAGCGCCATCTAC”, for which the binding signal (RPM ratio (pull-down/input)) came out at 1.67.
The figure for “GATGATTGTTCTCCCAGCTGATGAATTGTACGTTTCGAGTAAACAAATTTTCCTAATCTTTCTGTTCAAGCGCCATCTAC” is 0.622; for “GATGATTGTTCTCCCAGCTGATGAATTTTCTGCGTCGAGTAAACAAATTTTCCTAATCTTTCTGTTCAAGCGCCATCTAC” it is 0.461; for “GATGATTGTTCTCCCAGCTGATGAATTTGTAAAGTCGAGTAAACAAATTTTCCTAATCTTTCTGTTCAAGCGCCATCTAC” it is 0.634.
“GATGATTGTTCTCCCAGCTGATGAATTCCCGGCTTCGAGTAAACAAATTTTCCTAATCTTTCTGTTCAAGCGCCATCTAC”: the binding signal (RPM ratio (pull-down/input)) turned out to be 0.227.
The figure for “GATGATTGTTCTCCCAGCTGATGAATTTCTTATCTCGAGTAAACAAATTTTCCTAATCTTTCTGTTCAAGCGCCATCTAC” is 0.495; for “GATGATTGTTCTCCCAGCTGATGAATTGGCCCCGTCGAGTAAACAAATTTTCCTAATCTTTCTGTTCAAGCGCCATCTAC” it is 0.23; for “GATGATTGTTCTCCCAGCTGATGAATTACGAAAGTCGAGTAAACAAATTTTCCTAATCTTTCTGTTCAAGCGCCATCTAC” it is 0.214.
In the case of “GATGATTGTTCTCCCAGCTGATGAATTGCGTGTTTCGAGTAAACAAATTTTCCTAATCTTTCTGTTCAAGCGCCATCTAC”, the binding signal (RPM ratio (pull-down/input)) came to 2.21.
The figure for “GATGATTGTTCTCCCAGCTGATGAATTGGTGAATTCGAGTAAACAAATTTTCCTAATCTTTCTGTTCAAGCGCCATCTAC” is 0.867; for “GATGATTGTTCTCCCAGCTGATGAATTTACATGTTCGAGTAAACAAATTTTCCTAATCTTTCTGTTCAAGCGCCATCTAC” it is 0.896.
On to “GATGATTGTTCTCCCAGCTGATGAATTAACAATATCGAGTAAACAAATTTTCCTAATCTTTCTGTTCAAGCGCCATCTAC”, for which the binding signal (RPM ratio (pull-down/input)) came to 0.975.
Take “GATGATTGTTCTCCCAGCTGATGAATTCCTAGGTTCGAGTAAACAAATTTTCCTAATCTTTCTGTTCAAGCGCCATCTAC”: the binding signal (RPM ratio (pull-down/input)) turned out to be 0.195.
The figure for “GATGATTGTTCTCCCAGCTGATGAATTCAGTGGCTCGAGTAAACAAATTTTCCTAATCTTTCTGTTCAAGCGCCATCTAC” is 0.688; for “GATGATTGTTCTCCCAGCTGATGAATTATGGTTTTCGAGTAAACAAATTTTCCTAATCTTTCTGTTCAAGCGCCATCTAC” it is 1.24.
The figure for “GATGATTGTTCTCCCAGCTGATGAATTCATTACCTCGAGTAAACAAATTTTCCTAATCTTTCTGTTCAAGCGCCATCTAC” is 0.518.
The figure for “GATGATTGTTCTCCCAGCTGATGAATTGGAGACTTCGAGTAAACAAATTTTCCTAATCTTTCTGTTCAAGCGCCATCTAC” is 0.389; for “GATGATTGTTCTCCCAGCTGATGAATTAAAGAACTCGAGTAAACAAATTTTCCTAATCTTTCTGTTCAAGCGCCATCTAC” it is 0.221; for “GATGATTGTTCTCCCAGCTGATGAATTATCTCAATCGAGTAAACAAATTTTCCTAATCTTTCTGTTCAAGCGCCATCTAC” it is 0.287.
“GATGATTGTTCTCCCAGCTGATGAATTCGATTATTCGAGTAAACAAATTTTCCTAATCTTTCTGTTCAAGCGCCATCTAC”: the binding signal (RPM ratio (pull-down/input)) is 2.64.
The figure for “GATGATTGTTCTCCCAGCTGATGAATTACCATGCTCGAGTAAACAAATTTTCCTAATCTTTCTGTTCAAGCGCCATCTAC” is 0.582; for “GATGATTGTTCTCCCAGCTGATGAATTGCCCCTGTCGAGTAAACAAATTTTCCTAATCTTTCTGTTCAAGCGCCATCTAC” it is 0.431; for “GATGATTGTTCTCCCAGCTGATGAATTTAATATTTCGAGTAAACAAATTTTCCTAATCTTTCTGTTCAAGCGCCATCTAC” it is 2.73.
The figure for “GATGATTGTTCTCCCAGCTGATGAATTCTAGCTTTCGAGTAAACAAATTTTCCTAATCTTTCTGTTCAAGCGCCATCTAC” is 0.968; for “GATGATTGTTCTCCCAGCTGATGAATTGTAAGAATCGAGTAAACAAATTTTCCTAATCTTTCTGTTCAAGCGCCATCTAC” it is 0.258; for “GATGATTGTTCTCCCAGCTGATGAATTTCTGGTGTCGAGTAAACAAATTTTCCTAATCTTTCTGTTCAAGCGCCATCTAC” it is 0.353.
The figure for “GATGATTGTTCTCCCAGCTGATGAATTGAGACCATCGAGTAAACAAATTTTCCTAATCTTTCTGTTCAAGCGCCATCTAC” is 0.502.
On to “GATGATTGTTCTCCCAGCTGATGAATTTGTGAAGTCGAGTAAACAAATTTTCCTAATCTTTCTGTTCAAGCGCCATCTAC”, for which the binding signal (RPM ratio (pull-down/input)) came to 0.543.
The figure for “GATGATTGTTCTCCCAGCTGATGAATTTTGCGTTTCGAGTAAACAAATTTTCCTAATCTTTCTGTTCAAGCGCCATCTAC” is 4.87; for “GATGATTGTTCTCCCAGCTGATGAATTCCTTAAGTCGAGTAAACAAATTTTCCTAATCTTTCTGTTCAAGCGCCATCTAC” it is 0.171.
